Our source for the nuclei count values is the supplement of paper PMC8183993.

Counter-ions that a name gives are not always drawn. ± gives the standard deviation of the averaged measurements. The full ranking holds about 3,200 compounds; the median of “nuclei count (viability) relative to DMSO” is about 99, and the lowest 2% start at about 16. The list shows a part of the results.

This assay has as its system U2OS. In words: nuclei count (viability) relative to DMSO (% of DMSO); higher = more viable cells. To be noted: 10 µM; 24 h. Here is the method:
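Primary image-based screen in U2OS cells: compounds at 10 uM for 24 h, then a 1 h o-propargyl-puromycin (OPP) pulse, click labelling, and high-throughput microscopy. Mean cytoplasmic OPP intensity and nuclei count were normalised to DMSO wells within each plate (DMSO = 100) and averaged over triplicate plates.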
For `Cc1ccc2c(c1)C1(CCN(CCc3nc(-c4ccccc4)oc3C)CC1)OC(=O)N2`, the nuclei count was found to be 101. In the case of `C[C@]12CC[C@@H](O)C[C@H]1CC[C@@H]1[C@@H]2CC[C@]2(C)C(=O)CC[C@@H]12` [3-alpha-Hydroxy-5-beta-androstan-17-one] it was 99.8; in that of `CCN1CC2(OC(=O)c3ccccc3NC(C)=O)CCC(OC)C34C1C(CC23)C1(O)CC(OC)C2CC4C1(O)C2OC` (stereo unspecified) [Lappaconite HBr], 108; in that of `N[C@H](C(=O)O)c1cc(O)no1` [Ibotenic acid], 103. In turn, `CN(C)C(=O)Oc1ccc[n+](C)c1` [Pyridostigmine iodide] gave a nuclei count of 106.

The compound `C[C@@H]1O[C@@H](O[C@@H]2C=C3CC[C@@H]4[C@H](CC[C@]5(C)[C@@H](c6ccc(=O)oc6)CC[C@]45O)[C@@]3(C)CC2)[C@H](O)[C@H](O)[C@H]1O` [Proscillaridin A] showed a nuclei count of 16.5. With `CN1CCN(c2nc3ccccc3nc2Cl)CC1` the figure was 102; with `C#CCN(C)[C@H](C)Cc1ccccc1` [Selegiline hydrochloride], 98.2; with `COc1cc(C(=O)N2CC[C@@H](O)[C@@H](N)C2)cc2nc(-c3cc4ccccc4n3CC3CC3)n(C)c12`, 91.9. In the case of `CC(C)(OO)c1ccccc1` [Cumene hydroperoxide] it was 67.6; in that of `O=c1[nH]c2ccccc2n1C1CCN(CCCC(c2ccc(F)cc2)c2ccc(F)cc2)CC1` [Pimozide], 93.8 ± 7.6; in that of `O=C(O)/C=C/CO` [trans-4-Hydroxycrotonic acid], 102. As for `Cc1cc2c(C(C)C)c(O)c(O)c(C=O)c2c(O)c1-c1c(C)cc2c(C(C)C)c(O)c(O)c(C=O)c2c1O` [Gossypol], the nuclei count was found to be 88.6 ± 4.1. With `O=c1ccc2[nH]cc(C3=CCNCC3)c2[nH]1` the figure was 107; with `FC(F)(F)c1cccc(C2=CCN(CCc3ccc4ccccc4c3)CC2)c1` [Xaliproden hydrochloride], 93.9. With `CC(=O)NCCc1c[nH]c2ccccc12` [N-Acetyltryptamine] the figure was 102. In the case of `CC1=C2C[C@H]3[C@@H](CC=C4C[C@@H](O)CC[C@@]43C)[C@@H]2CC[C@]12O[C@@H]1C[C@H](C)CN[C@H]1[C@H]2C` [Cyclopamine], the nuclei count is 87.2. In the case of `NCCc1c[nH]c2ccc(C(N)=O)cc12` [5-Carboxamidotryptamine maleate] it was 99.2.

`CC1(C)[C@@H](O)C[C@H]2[C@](C)(O)[C@@H]3CC[C@@H]4[C@@H](O)[C@@]3(C[C@@H](O)[C@@]21O)C[C@@]4(C)O` [Grayanotoxin III] had a nuclei count of 98.7. Turning to `O=c1[nH]c2ccc(Cl)cc2c(N[C@@H]2CN3CCC2CC3)c1-c1nc2ccccc2[nH]1`, the nuclei count turned out to be 36 ± 0.89. With `Clc1ccc(N2CCN(Cc3c[nH]c4ncccc34)CC2)cc1` [L-745,870 trihydrochloride] the figure was 97.4. `CC1OC(OC2/C=C/C=C/C=C/C=C/CC/C=C/C=C/[C@H](C)[C@@H](O)[C@@H](C)[C@H](C)OC(=O)CC(O)CC(O)CC(O)CCC(O)C(O)C[C@]3(O)CC(O)C(C(=O)O)C(C2)O3)C(O)C(N)C1O` (stereo partly specified) [Nystatine] had a nuclei count of 107.

The compound `CN1CCN(c2ccc3ccccc3n2)CC1` [N-Methylquipazine dimaleate] showed a nuclei count of 98.9. In the case of `NCCCNCCSP(=O)(O)O` [Amifostine] it was 93.5; in that of `CCN(CC)C(=O)c1ccc(C2=CC3(CCNCC3)Oc3cccc(O)c32)cc1`, 99.3; in that of `O=C(CCCN1CCC2(CC1)C(=O)N(Cc1cccc(F)c1)CN2c1ccccc1)c1ccc(F)cc1` [3'-Fluorobenzylspiperone maleate], 29.4. With `C=C(C)CN1CC[C@@]23c4c5ccc(O)c4O[C@H]2c2[nH]c4ccccc4c2C[C@]3(O)C1C5` [SDM25N hydrochloride] the figure was 105; with `C[C@]12CCC(=O)C(O)=C1CC[C@@H]1[C@@H]2CC[C@]2(C)C(=O)CC[C@@H]12` [Formestane], 96.5 ± 10; with `CNC(C)(C)Cc1ccccc1` [Mephentermine hemisulfate], 91.9. With `c1ccc(C2CC2)c(OCC2=NCCN2)c1` [Cirazoline hydrochloride] the figure was 98.2.

In the case of `CN1[C@@H]2CC[C@H]1C[C@@H](OC(=O)C(CO)c1ccccc1)C2` (stereo partly specified) [Atropine sulfate monohydrate], the nuclei count turned out to be 94.5. Compound `CN1[C@@H]2CC[C@H]1C[C@@H](OC(=O)C(CO)c1ccccc1)C2` (stereo partly specified) [Atropine] registered a nuclei count of 96.2.

On to `CC(C)C[C@H]1C(=O)N2CCC[C@H]2[C@]2(O)O[C@](NC(=O)[C@@H]3C=C4c5cccc6[nH]c(Br)c(c56)C[C@H]4N(C)C3)(C(C)C)C(=O)N12` [Bromocriptine mesylate], for which the nuclei count is 98.7.

Compound `CC(C)C[C@H]1C(=O)N2CCC[C@H]2[C@]2(O)O[C@](NC(=O)[C@@H]3C=C4c5cccc6[nH]c(Br)c(c56)C[C@H]4N(C)C3)(C(C)C)C(=O)N12` [Bromocryptine mesylate] returned a nuclei count of 90.9. With `c1ccc(CCCN2CCN(CCOC(c3ccccc3)c3ccccc3)CC2)cc1` the figure was 99.2; with `C#CCOC(=O)C1=CCCN(C)C1` [Arecaidine propargyl ester tosylate], 89; with `O=C(Cc1ccc(Cl)c(Cl)c1)N1CCCCC1CN1CCCC1` (stereo unspecified), 97.3. In the case of `CCC1=C[C@H]2CN3CCc4c([nH]c5ccccc45)[C@](C(=O)OC)(C2)[C@H]13` [Catharanthine] it was 97.6; in that of `CC(C)NCC(O)c1ccc(N)c(C#N)c1` (stereo unspecified) [Cimaterol], 80.2. In the case of `CC[C@@H]1[C@@H](C)O[C@@](O)([C@@H](C)[C@H](O)[C@H](C)[C@H]2OC(=O)/C=C/C=C/[C@H](C)[C@@H]([C@@H](C)[C@@H](O)[C@H](C)[C@@]3(O)C[C@@H](O[C@H]4C[C@H](O)[C@H](O)[C@H](C)O4)[C@H](CC)[C@@H](C)O3)OC(=O)/C=C/C=C/[C@@H]2C)C[C@H]1O[C@H]1C[C@H](O)[C@H](O)[C@H](C)O1` [Azalomycin-B] it was 107; in that of `c1ccc(CC(c2ccccc2)N2CCCCC2)cc1` (racemic) [(±)-1-(1,2-Diphenylethyl)piperidine maleate], 103; in that of `CCc1c(C(=O)C(N)=O)c2c(OCC(=O)O)cccc2n1Cc1ccccc1`, 106. With `CC(=O)[C@H]1CC[C@H]2[C@@H]3CC[C@@H]4CC(=O)CC[C@]4(C)[C@H]3CC[C@]12C` [5b-Pregnan-3,20-dione], the nuclei count stood at 100.

Compound `CCNCC(O)c1cccc(O)c1` (stereo unspecified) [Etilefrine hydrochloride] gave a nuclei count of 104.

Take `Clc1cccc(SC2CCNCC2)n1` [Anpirtoline hydrochloride]: the nuclei count turned out to be 83.8.

On to `CCOC(=O)c1ncc2[nH]c3ccc(OCc4ccccc4)cc3c2c1COC`, for which the nuclei count was determined as 91. With `CC(C)(N)Cc1ccccc1` [Phentermine hydrochloride] the figure was 90.2.

The compound `NP(N)(=O)NC(=O)c1ccc(F)cc1` [Flurofamide] came in with a nuclei count of 99.5.

As for `COc1ccc2[nH]cc(C3=CCNCC3)c2c1`, the nuclei count amounted to 96.9. In the case of `O=C(O)CCC(CP(=O)(O)O)C(=O)O` (stereo unspecified) [PMPA (NAALADase inhibitor)] it was 98.6; in that of `CC(C)(C)OC(=O)c1ncn2c1[C@@H]1CCCN1C(=O)c1c(Br)cccc1-2` [Bretazenil], 92.2. With `CN(C)C(=O)Oc1cccc([N+](C)(C)C)c1` [Neostigmine bromide] the figure was 94.1; with `Cc1onc(O)c1C[C@H](N)C(=O)O`, 102; with `CNC(=O)Oc1ccc2c(c1)[C@]1(C)CCN(C)[C@@H]1N2C` [Eserine hemisulfate salt], 96.1. In the case of `COc1ccc(C(CN(C)C)C2(O)CCCCC2)cc1` (stereo unspecified) [Venlafaxine] it was 110.

`CN1[C@@H]2CC[C@H]1CC(OC(=O)N1Cc3ccccc3NC1=O)C2` (stereo partly specified) [DAU 5884 hydrochloride] yielded a nuclei count of 102.
